Measurements as given in PubChem BioAssay AID504706 (National Center for Advancing Translational Sciences (NCATS), 2011).
Hit rate of the full screen: of about 320,000 compounds, about 200 (0.062%) were called active. This list was built around the results that the source calls inconclusive (neither active nor inactive); the mix of calls is not that of the screen. Calls come from the whole dose curve; as a rule, active = well fitted activation curve with a large enough effect; inconclusive = small, poorly fitted or top-dose-only effect; inactive = no such curve, though single readings can be large or run the other way. No potency is given beside an inconclusive call; the fits are too rough.
Potency is the fitted concentration of half-maximal effect; tags give direction and shape of the fitted curve.

Experiment: qHTS assay for re-activators of p53 using a Luc reporter; note: nearly all actives have a fitted effect of over 45% in size; for activity change, positive = activation: % of control where 0% means no effect
Conditions: H1299 p53-A138V BP100-luciferase reporter, luminescence, 24 h; series mostly up to 92.2 µM; activity change, positive = activation: at the top concentration
Summary of the method: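 H1299 (p53-null), stable ts p53-A138V + BP100-Luc; 1000 cells/well, Opti-MEM/10% FBS; cpd 4 pt, 1:5; 24 h, 37 deg C, 5% CO2; detection reagent 10 min RT; luminescence.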
In the case of `CCCCCc1nnc(NC(=O)OCCC)s1`, the Potency is reported as inconclusive [activator, partial curve, poor fit]. In the case of `CCCCCc1c(C)nc(N2CCc3ccccc3C2)[nH]c1=O`, the Potency is reported as inconclusive [activator, partial curve, poor fit]. For `CC(C)[C@H](NC(=O)C1CC(=O)N(c2ccc(F)cc2)C1)C(=O)N1CCCCC1` (stereo partly drawn), the “activity change, positive = activation” value was inactive: 21%. In the case of `COc1cccc(-c2nc(CS(=O)(=O)CC(=O)N3CCCCC3)c(C)o2)c1`, the Potency is reported as inconclusive [activator, single point]. With `COc1ccc(C(=O)c2c(C)c3ccccc3n2CC(O)CNC(C)C)cc1` (stereo not drawn) the “activity change, positive = activation” value was inactive: -14.5%. For `CCc1ccc(OCCNc2cc(N3CCNC(C)C3)ccc2[N+](=O)[O-])cc1` (stereo not drawn), the Potency was inconclusive [activator, single point]. For `O=C(COc1ccccc1)N1CCc2ccccc21`, the Potency was inconclusive [activator, partial curve, poor fit]. For `CC1=C(C(N)=O)C(c2ccccc2[N+](=O)[O-])n2ncnc2N1` (stereo not drawn), the “activity change, positive = activation” value was inactive: -1.23%. With `Cc1[nH]n(-c2ncc(-c3ccc(Cl)cc3)s2)c(=O)c1C(c1ccc(Cl)cc1)C(C#N)C#N` (stereo not drawn) the Potency was inconclusive [activator, full curve, poor fit]. For `CSc1cccc(CNC(=O)C2CCC(=O)N(CC3CCCCC3)C2)c1` (stereo not drawn), the “activity change, positive = activation” value was inactive: -8.72%. In the case of `O=C(CP(=O)(c1ccccc1)c1ccccc1)N/N=C/c1cc(Br)cc(Br)c1O`, the Potency is reported as inconclusive [activator, single point]. With `Cc1cccc(NC(=O)CSc2nnc(NC(=O)C3CC3)s2)c1C` the “activity change, positive = activation” value was inactive: 14.2%. With `COc1cccc(NC(=O)c2ccc(CN3CCOCC3)cc2)c1` the Potency was inconclusive [activator, partial curve, poor fit]. With `COc1cccc2cc(C(=O)NCc3ccco3)c(=Nc3ccc(C(=O)O)cc3)oc12` the Potency was inconclusive [activator, full curve, poor fit]. With `O=C(Nc1ccc(N2CCOCC2)c(Cl)c1)c1ccccc1F` the Potency was inconclusive [activator, partial curve, poor fit]. With `c1ccc(CCNc2nc(-c3ccncc3)nc3ccccc23)cc1` the “activity change, positive = activation” value was inactive: 0.651%. With `O=C1c2ccccc2C(Nc2ccc3c(c2)OCCO3)N1Cc1ccco1` (stereo not drawn) the Potency was inconclusive [activator, partial curve, poor fit]. With `COc1cc(OC)c(C2CC(=O)N3CN(c4ccc(C)cc4)CSC3=C2C#N)cc1OC` (stereo not drawn) the Potency was inconclusive [activator, partial curve, poor fit]. For `Cc1nc2ccc(NC(=O)c3sccc3C)cc2s1`, the Potency was inconclusive [activator, partial curve, poor fit]. In the case of `COc1ccc2cc(CN(Cc3ccco3)Cc3nnnn3C3CCCCC3)c(=O)[nH]c2c1`, the “activity change, positive = activation” value is reported as inactive: -3.21%. In the case of `COc1ccc(CNC(=O)c2cccc(S(=O)(=O)N3CCCCC3)c2)cc1OC`, the “activity change, positive = activation” value is reported as inactive: -14.1%. For `CCOC(=O)C/C(C)=N/NC(=O)c1cccs1`, the Potency was inconclusive [activator, single point]. With `Cc1cccc(NC(=O)c2cc3n(n2)C(C(F)(F)F)CC(c2ccc4c(c2)OCO4)N3)c1` (stereo not drawn) the “activity change, positive = activation” value was inactive: -24.6%. In the case of `Nc1sc2c(c1C(=O)NC1CCS(=O)(=O)C1)CCCC2` (stereo not drawn), the Potency is reported as inconclusive [activator, single point]. In the case of `CCc1nnc(NC(=O)CSc2nnc(-c3ccccc3O)o2)s1`, the “activity change, positive = activation” value is reported as inactive: 3.45%. In the case of `O=C(CSc1n[nH]c(-c2ccccc2)n1)c1ccccc1`, the “activity change, positive = activation” value is reported as inactive: 26.3%. For `COc1cc(C(=O)Nc2ccc3c(c2)OCCO3)ccc1OC(F)F`, the Potency was inconclusive [activator, partial curve, poor fit]. For `COc1cc(OC)c2c(-c3cccc(-c4ccc(N(C)C)cc4)c3)cc(=O)oc2c1`, the Potency was inconclusive [activator, partial curve, poor fit]. In the case of `Cc1ccccc1Nc1cc(C)c2c(O)cccc2n1`, the Potency is reported as inconclusive [activator, partial curve]. In the case of `CC1(C)CC(=O)C=C(Nc2cc(-c3ccccc3)[nH]n2)C1`, the Potency is reported as inconclusive [activator, partial curve, poor fit]. In the case of `CCC(=O)NC(=S)Nc1ccc(NC(=O)COc2ccccc2)cc1`, the Potency is reported as inconclusive [activator, full curve, poor fit]. For `Cc1occc1C(=O)N/N=C/C(Br)=C\c1ccccc1`, the Potency was inconclusive [activator, full curve, poor fit]. For `Cc1cc(C(=O)CSc2ccc(F)cc2)cc(C)c1O`, the Potency was inconclusive [activator, partial curve, poor fit]. With `COc1ccc(-c2cc3ccc(OC(C)C(=O)O)cc3oc2=O)cc1` (stereo not drawn) the Potency was inconclusive [activator, partial curve, poor fit]. In the case of `COc1cc(/C=N/NC(=O)COc2ccc(Cl)cc2)ccc1OS(=O)(=O)c1ccc(C)cc1`, the “activity change, positive = activation” value is reported as inactive: 1.49%. For `c1ccc(SCc2nc(-c3ccncc3)no2)cc1`, the Potency was inconclusive [activator, full curve, poor fit]. In the case of `N#CC1=C(N)SC(N)=C(C#N)C1c1c(Cl)cccc1Cl`, the “activity change, positive = activation” value is reported as inactive: 10.3%. In the case of `CCCCNC(=O)C(CC)(ONc1ccccc1C(F)(F)F)c1ccccc1` (stereo not drawn), the Potency is reported as inconclusive [activator, single point]. In the case of `Cc1cc(C(=O)NC2Cc3ccccc3C2)c(C)o1`, the Potency is reported as inconclusive [activator, partial curve, poor fit]. For `CNC(=S)N1N=C(c2ccc(Br)cc2)CC1c1ccc(Br)cc1` (stereo not drawn), the “activity change, positive = activation” value was inactive: -2.95%. For `CCOC(=O)C1CCN(CCCSc2ccc(Cl)cc2)CC1`, the Potency was inconclusive [activator, partial curve, poor fit]. With `Cc1cnc(C(=O)OCC(=O)Nc2ccc(OCc3ccccc3)cc2)cn1` the Potency was inconclusive [activator, partial curve, poor fit]. In the case of `Cc1cc(N/N=C/c2cccc(Br)c2)nc2ccccc12`, the Potency is reported as inconclusive [activator, partial curve, poor fit].
